Laboratory results reported in article PMC4336329 (PLoS ONE, 2015).
About 2,200 (0.71%) of roughly 310,000 compounds showed an effect of 50% or more. The effect is printed as a negative number. This is one part of the list.

Molecular target: human ether-à-go-go-related gene (hERG) potassium channel (human, UniProt Q12809)
Experiment: primary screen, population patch clamp on CHO cells stably expressing hERG

human ether-à-go-go-related gene (hERG) potassium channel, sequence (Q12809 whole entry, looked up): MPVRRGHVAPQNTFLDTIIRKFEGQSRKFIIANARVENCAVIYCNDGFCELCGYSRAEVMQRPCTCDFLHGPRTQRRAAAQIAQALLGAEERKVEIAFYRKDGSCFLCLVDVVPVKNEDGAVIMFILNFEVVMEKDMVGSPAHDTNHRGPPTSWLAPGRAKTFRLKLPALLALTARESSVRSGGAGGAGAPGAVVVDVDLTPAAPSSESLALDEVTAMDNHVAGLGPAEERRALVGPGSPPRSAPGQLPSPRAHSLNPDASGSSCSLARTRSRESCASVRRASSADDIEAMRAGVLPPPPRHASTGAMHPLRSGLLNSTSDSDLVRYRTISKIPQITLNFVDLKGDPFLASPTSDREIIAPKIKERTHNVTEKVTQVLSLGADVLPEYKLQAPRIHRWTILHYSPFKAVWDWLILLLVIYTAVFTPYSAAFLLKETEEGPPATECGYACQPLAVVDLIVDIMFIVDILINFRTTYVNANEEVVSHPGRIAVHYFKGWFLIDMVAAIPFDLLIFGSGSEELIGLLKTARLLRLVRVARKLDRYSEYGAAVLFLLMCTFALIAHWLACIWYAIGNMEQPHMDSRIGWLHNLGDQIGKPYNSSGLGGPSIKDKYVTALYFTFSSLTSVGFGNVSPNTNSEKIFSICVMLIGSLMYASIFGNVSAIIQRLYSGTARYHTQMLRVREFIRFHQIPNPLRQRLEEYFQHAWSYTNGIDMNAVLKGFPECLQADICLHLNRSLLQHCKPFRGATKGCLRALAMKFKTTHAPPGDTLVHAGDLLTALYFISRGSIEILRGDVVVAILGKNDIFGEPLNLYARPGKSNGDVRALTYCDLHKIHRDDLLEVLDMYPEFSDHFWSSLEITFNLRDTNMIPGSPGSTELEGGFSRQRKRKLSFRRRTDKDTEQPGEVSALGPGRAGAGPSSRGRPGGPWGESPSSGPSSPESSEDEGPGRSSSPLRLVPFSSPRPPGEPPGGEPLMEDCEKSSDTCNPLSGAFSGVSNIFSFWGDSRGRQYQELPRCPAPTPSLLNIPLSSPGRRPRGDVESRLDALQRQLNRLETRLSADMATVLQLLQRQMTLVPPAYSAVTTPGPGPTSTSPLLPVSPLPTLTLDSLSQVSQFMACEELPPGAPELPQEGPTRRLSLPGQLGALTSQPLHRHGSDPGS

Structure (SMILES)	hERG current change (%, negative = inhibition) at 1uM [%]
O=C(NCCCN1CCCC1=O)c1ccc(CNS(=O)(=O)c2ccc(F)cc2)cc1	2.82
COc1ccc(OC)c(-c2nc3cc4ccccc4cc3nc2-c2ccccc2)c1	7.79
O=C(O)C1=C[C@@H](C2CC2)C[C@@H](OCCCCO)O1	10.7
C=CCn1c(O)c(C(CC)=Nc2ccc(N(CC)CC)cc2)c(=O)[nH]c1=O	9.31
O=C(NCCCn1ccnc1)c1cccc(Br)c1	6.56
COP(=O)(OC)C(NC(=O)Nc1ccccc1)c1ccccc1 (stereo not shown)	5.35
Cc1ccc(Nc2nnc(SCn3nnc4ccccc4c3=O)s2)cc1	7.8
CC1Cc2ccccc2N1C(=O)CSc1ncccn1 (stereo not shown)	11
CC1C(=O)C(C)(C)C(=O)OC1c1ccc([N+](=O)[O-])cc1 (stereo not shown)	9.08
COC(=O)c1sc(C(F)(F)F)c(-c2ccccc2)c1S(=O)(=O)N(C)C	10.7
COc1ccc(N(CC(=O)Nc2ccc(C)cc2)S(=O)(=O)c2c(C)noc2C)cc1	15.5
O=C(NNc1nc(N2CCOCC2)nc(N2CCOCC2)n1)Nc1ccc(Cl)cc1	9.69
Cc1cc(C)nc(SCc2ccc(C(=O)N/N=C/c3ccncc3)cc2)n1	3.7
O=Cc1ccc(OC(=O)Cc2ccc(F)cc2)cc1	12.4
Cc1ccc(Nc2cccc(C(F)(F)F)c2)nn1	5.93
O=C(N/N=C/c1cnc(N2CCOCC2)s1)c1ccccc1	10.8
Cc1nn(C)c(C(=O)N2CCN(C(=O)c3ccco3)CC2)c1Br	11.7
COc1ccccc1N=Cc1c(C)c(C#N)c2[nH]c3ccccc3n2c1=O	9.35
CCC1CCCCN1Cc1ccc(CNS(=O)(=O)c2ccc3c(c2)oc(=O)n3C)o1 (stereo not shown)	3.82
CC(=O)N=c1ncn(CC(COC(C)=O)OC(C)=O)c2nc[nH]c12 (stereo not shown)	12.9
CC(C)c1cc(CN2CCN(C3CCCC3)C(CCO)C2)[nH]n1 (stereo not shown)	8.68
C=CCOC(=O)C1=C[C@H](c2ccc(C(F)(F)F)cc2)C[C@H](OCCCCO)O1	9.6

Structure (SMILES)	hERG current change (%, negative = inhibition) at 1uM [%]
CC(C)CCOc1ccc(C(=O)NCCC(=O)N2CCOCC2)cc1	3.89
COc1ccc(S(=O)(=O)n2ccc(-c3ccc(OCCN(C)c4ccccn4)cc3)n2)cc1	17.2
O=C1CCCN1CCC12CC3CC(CC(C3)C1)C2	7.27
Cc1ccccc1NC(=O)c1ccc(S(=O)(=O)N2CCCC2)cc1	10
Cc1c(C(=O)NN2CCOCC2)cccc1[N+](=O)[O-]	10.5
CC(C)(C)n1nc2c(c1NC(=O)c1cccs1)CS(=O)C2 (stereo not shown)	20.4
C/C(N)=C(/C#N)C(=O)COC(=O)c1cc(-c2ccc(C)cc2)nc2ccccc12	21.2
Cc1cc(C)cc(NC(=O)COC(=O)Cn2cnc3c2c(=O)n(C)c(=O)n3C)c1	-12.4
CCCOc1ccc2oc(=O)c3c(c2c1)CCCN3C(=O)CN1CCN(C(=O)c2ccco2)CC1	-20.3
CCCCCn1c(=O)[nH]c2cc(C(=O)NCCN3CCC(C)CC3)ccc2c1=O	0.349
Cc1cc(C)cc(C(=O)NCCC(=O)N2CCC3(CC2)NCCc2[nH]cnc23)c1	24.2
COc1ccc(NC(=O)CCN=C2NS(=O)(=O)c3ccccc32)cc1S(=O)(=O)N(C)C	7.52
COc1ccccc1Nc1nnc(Cc2ccccc2)c(=O)[nH]1	7.65
CCN(CCn1cccn1)C(=O)CC1C(=O)NCCN1CCc1ccccc1 (stereo not shown)	6.34
Cc1cc(/C=N/n2cnnc2)c(C)n1-c1cccc(C(=O)O)c1	13.6
CCC(CO)NCc1ccc2c(c1)n(C)c(=O)n2C.Cl (stereo not shown)	19.1
C=CCn1cc(CN2CCC(C(=O)Nc3cccc(-c4cccc(Cl)c4)c3)CC2)c(C)n1	-30
CCOC(=O)C1=C(C)NC(=O)NC1c1ccc(NC(C)=O)cc1 (stereo not shown)	11.6
O=C(Nc1ccccc1F)C1CCN(S(=O)(=O)c2cccnc2)CC1	14.5
COc1ccc(N2C(=O)c3ccc(C(=O)Nc4ccccc4OC)cc3C2=O)cc1	18.5
O=C(COn1nnc2ccc(S(=O)(=O)N3CCOCC3)cc21)NCCc1ccccc1	8.88
CCOc1ccccc1NC(=O)C1CCCN(S(=O)(=O)c2ccc(-n3cnnn3)cc2)C1 (stereo not shown)	11.2

Structure (SMILES)	hERG current change (%, negative = inhibition) at 1uM [%]
O=C1NCCN1C(=O)C12CC3CC(CC(C3)C1)C2	5.8
COC(=O)CN(c1cc(C(F)(F)F)ccc1Cl)S(C)(=O)=O	11.6
CC1=NN(c2ccccc2)C(=O)C1N=Nc1ccc(S(N)(=O)=O)cc1 (stereo not shown)	4.25
CC(=O)c1ccc(NC(=O)C2CCCN(S(=O)(=O)c3ccc(-n4cnnn4)cc3)C2)cc1 (stereo not shown)	10.3
CC(C)c1ccc(OCC(=O)NC(Cc2c[nH]c3ccccc23)C(=O)O)cc1 (stereo not shown)	14.1
COc1ccc(CCNS(=O)(=O)c2cccc(F)c2)cc1OC	3.77
Oc1ccc(CN2CCN(Cc3ccccc3)CC2)c2cccnc12	7.56
O=c1nc(Nc2ccc([N+](=O)[O-])cc2)[nH]c(=O)[nH]1	9.16
O=C(Nc1nnc(SCC(=O)N2CCCCC2)s1)c1ccc(F)cc1F	4.43
COc1ccc(NC(=O)CNc2cc(C)ccc2C)cc1S(=O)(=O)N1CCOCC1	7.68
O=C(C1=COCCO1)N1CCN(S(=O)(=O)c2cccc(Cl)c2Cl)CC1	6.31
Cn1c(CN2CCN(c3ccccc3NS(C)(=O)=O)CC2)nc2ccccc21	-32.2
CCOC(=O)CSc1nc2cc3c(cc2cc1C#N)OCO3	1.14
C1CCC(Nc2nnnn2C2CCCCC2)CC1	15.4
COc1ccc(OC)c(S(=O)(=O)n2ccnc2C(C)C)c1	8.65
O=C(CSc1ncccc1-c1nc2ccccc2[nH]1)N1CCc2ccccc21	-3.17
COCCN(CC(=O)Nc1cccc(C)c1C)C(=O)Cn1c(=O)cnc2ccccc21	11.3
C=CCn1c(=NC(=O)c2ccccc2[N+](=O)[O-])sc2cc(S(C)(=O)=O)ccc21	7.35
CCOC(=O)N1CCN(C(=O)c2cccc(NS(=O)(=O)c3ccc(F)c(F)c3)c2)CC1	10.6
C/C(CC(=O)Nc1ccc(F)cc1F)=N\NC(=O)C(=O)N1CCCCC1	24.8
NC(=O)C1CC(=O)N(c2ccc(OCC(=O)Nc3cccc(C(F)(F)F)c3)cc2)C1 (stereo not shown)	9.25
CCCn1nnnc1SCC(=O)NNC(=O)c1ccco1	10.8

Structure (SMILES)	hERG current change (%, negative = inhibition) at 1uM [%]
CN(C)c1nc(N)nc(CSc2nnnn2C)n1	6.78
CCN1CCN(CCCNC(=O)C2c3ccccc3C(=O)N(C)C2c2ccc(OC)cc2)CC1 (stereo not shown)	18.4
COc1cccc(CN2CCC(N(CCc3ccccc3)Cc3ccccc3)CC2)c1OC.O=C(O)C(=O)O	0.877
Cc1cccc(N(C(=O)CCC(=O)Nc2ccccn2)C(C(=O)NC(C)C)c2ccc(F)cc2)c1 (stereo not shown)	19.3
O=C(/C=C/c1ccccc1)NCCS(=O)(=O)N1CCN(c2ccccc2)CC1	6.84
COc1ccc2cc(C(=O)C3CCCN(C(=O)c4snnc4C)C3)ccc2c1 (stereo not shown)	3.03
O=C(c1csc2c1CCCC2)N1CCN(c2ccccc2)CC1	4.39
O=C(Cn1cnc2ccccc21)N/N=C/c1ccco1	13.4
COCCn1cc(-c2csc(N)n2)c2ccccc21	12.2
CCC(c1nnnn1C1CCCC1)N(Cc1cccs1)Cc1cc2cccc(C)c2[nH]c1=O (stereo not shown)	11.2
CCc1ccc(NC(=O)c2cc(Br)ccc2Br)cc1	1.78
O=C(CSc1nc(-c2ccco2)cc(C(F)(F)F)n1)N1CCSCC1	-4.71
O=C(NCCCN1CCOCC1)C(=O)N/N=C/c1ccc(F)cc1	13
Cc1ccc(C)c(S(=O)(=O)N2CCN(CC(=O)NC(=O)NCc3ccccc3)CC2)c1	1.37
Cc1ccc(OCCN2C(=O)c3ccccc3C2=O)c(C)c1	-2.42
CC(=O)N[C@@H](C)C(=O)N1CCC(n2nccc2NC(=O)CCCc2ccccc2)CC1	15.2
CSCCC(NC(=O)C1CCC(C)CC1)C(=O)N1CCN(c2ccccn2)CC1 (stereo not shown)	-34.4
CC(C)C1Oc2ccccc2N(CC(=O)N(Cc2ccccn2)C2CC2)C1=O (stereo not shown)	5.36
O=C(Nn1c(C2CCCCC2)nc2ccccc2c1=O)c1ccc([N+](=O)[O-])cc1	5.74
O=C(O)c1cc([N+](=O)[O-])ccc1NCc1cccnc1	11
Cc1ccc(-c2nc3c(Cl)cc(Cl)cc3c(=O)n2O)cc1	11.9
COc1cc(N2CCCC2)c(OC)cc1/C=C1/NC(=S)NC1=O	4.37
